For part of its entries the source gives two or more results. Only these are listed. An entry can have further records. Some entries list several cross-links; each record is another pair of residues.

The target in the assay is SPTAN1 (UniProt Q13813). The experiment in a line: cross-linking mass spectrometry. The following applies: DSSO, not determined.

SPTBN1, sequence (Q01082 whole entry): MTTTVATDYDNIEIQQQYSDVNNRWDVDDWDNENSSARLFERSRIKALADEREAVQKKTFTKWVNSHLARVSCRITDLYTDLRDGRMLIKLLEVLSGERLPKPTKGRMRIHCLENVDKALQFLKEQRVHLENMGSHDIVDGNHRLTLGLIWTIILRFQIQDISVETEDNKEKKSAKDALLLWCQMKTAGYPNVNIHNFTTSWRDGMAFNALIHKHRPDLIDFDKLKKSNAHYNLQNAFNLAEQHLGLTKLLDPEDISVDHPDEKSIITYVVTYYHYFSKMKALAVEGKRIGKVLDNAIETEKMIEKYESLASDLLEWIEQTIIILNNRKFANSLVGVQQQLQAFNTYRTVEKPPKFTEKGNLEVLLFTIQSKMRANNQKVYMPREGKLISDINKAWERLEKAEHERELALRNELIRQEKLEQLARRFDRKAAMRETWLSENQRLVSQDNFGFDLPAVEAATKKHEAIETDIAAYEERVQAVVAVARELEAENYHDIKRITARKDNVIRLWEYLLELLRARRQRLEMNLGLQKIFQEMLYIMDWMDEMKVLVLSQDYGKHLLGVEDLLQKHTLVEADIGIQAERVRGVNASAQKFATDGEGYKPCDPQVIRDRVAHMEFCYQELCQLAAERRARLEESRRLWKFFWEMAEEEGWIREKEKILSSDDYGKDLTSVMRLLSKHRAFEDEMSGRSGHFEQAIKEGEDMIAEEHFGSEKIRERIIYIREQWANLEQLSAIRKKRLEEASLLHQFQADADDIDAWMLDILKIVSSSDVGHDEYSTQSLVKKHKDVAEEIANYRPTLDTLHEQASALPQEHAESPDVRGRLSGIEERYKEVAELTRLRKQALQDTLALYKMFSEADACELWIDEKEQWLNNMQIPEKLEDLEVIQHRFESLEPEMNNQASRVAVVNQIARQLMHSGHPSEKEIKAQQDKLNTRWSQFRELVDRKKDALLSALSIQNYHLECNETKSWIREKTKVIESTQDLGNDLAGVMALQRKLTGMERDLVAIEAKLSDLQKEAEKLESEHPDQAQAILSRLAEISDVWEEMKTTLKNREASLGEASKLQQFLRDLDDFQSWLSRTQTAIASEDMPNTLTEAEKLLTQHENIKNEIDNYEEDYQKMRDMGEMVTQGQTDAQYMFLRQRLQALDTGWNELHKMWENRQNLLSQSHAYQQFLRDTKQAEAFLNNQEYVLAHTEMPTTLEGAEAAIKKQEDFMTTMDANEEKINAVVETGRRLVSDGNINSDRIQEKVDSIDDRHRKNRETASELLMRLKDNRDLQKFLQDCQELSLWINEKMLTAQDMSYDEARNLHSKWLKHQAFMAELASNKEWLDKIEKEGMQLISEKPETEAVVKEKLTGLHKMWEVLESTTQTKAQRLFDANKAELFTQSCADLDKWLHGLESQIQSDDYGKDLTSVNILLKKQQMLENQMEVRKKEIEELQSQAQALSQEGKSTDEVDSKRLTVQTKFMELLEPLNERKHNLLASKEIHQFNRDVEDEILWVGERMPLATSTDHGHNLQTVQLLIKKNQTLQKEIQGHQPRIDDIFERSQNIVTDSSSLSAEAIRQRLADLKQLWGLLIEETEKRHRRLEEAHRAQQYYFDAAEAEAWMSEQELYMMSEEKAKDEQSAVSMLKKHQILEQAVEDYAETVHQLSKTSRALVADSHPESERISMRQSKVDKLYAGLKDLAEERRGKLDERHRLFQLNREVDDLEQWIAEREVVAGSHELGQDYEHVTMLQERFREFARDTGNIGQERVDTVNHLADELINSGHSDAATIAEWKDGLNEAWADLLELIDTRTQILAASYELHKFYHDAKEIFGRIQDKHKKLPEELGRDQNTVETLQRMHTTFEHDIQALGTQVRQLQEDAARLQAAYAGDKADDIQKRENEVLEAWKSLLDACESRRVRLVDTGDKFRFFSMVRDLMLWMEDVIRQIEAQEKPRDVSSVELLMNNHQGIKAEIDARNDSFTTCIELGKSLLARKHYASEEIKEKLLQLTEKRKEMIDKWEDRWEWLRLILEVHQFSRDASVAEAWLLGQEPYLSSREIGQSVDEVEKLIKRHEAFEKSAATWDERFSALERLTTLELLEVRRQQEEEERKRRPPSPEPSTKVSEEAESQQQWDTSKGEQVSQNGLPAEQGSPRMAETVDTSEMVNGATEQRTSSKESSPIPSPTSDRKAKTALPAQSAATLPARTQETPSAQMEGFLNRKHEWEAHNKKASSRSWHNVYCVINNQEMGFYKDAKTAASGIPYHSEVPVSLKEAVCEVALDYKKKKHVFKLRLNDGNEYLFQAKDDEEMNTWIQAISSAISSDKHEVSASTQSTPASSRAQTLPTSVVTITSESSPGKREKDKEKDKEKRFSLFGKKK

Regarding SPTBN1, Q01082, the cross-linked residues result was “K997 - K1646 and K1249 - K1369 and K2054 - K441”.

These data come from article doi:10.1101/2025.08.08.669391.
